Experimental data as given in article PMC11434109, “VIK‐Mediated Auxin Signaling Regulates Lateral Root Development in Arabidopsis” (Advanced Science, 2024).
These are yes or no findings as the source states them, for the method shown. For part of these data: Binding seen in cells or lysates may run through a third protein. Some entries that bind do so weakly or less than the wild type. Where a sequence is shown, tags or fusion partners need not be part of it.

By UniProt entry, the sequences of proteins in these tests, tags left out.
UniProt Q8L9K1: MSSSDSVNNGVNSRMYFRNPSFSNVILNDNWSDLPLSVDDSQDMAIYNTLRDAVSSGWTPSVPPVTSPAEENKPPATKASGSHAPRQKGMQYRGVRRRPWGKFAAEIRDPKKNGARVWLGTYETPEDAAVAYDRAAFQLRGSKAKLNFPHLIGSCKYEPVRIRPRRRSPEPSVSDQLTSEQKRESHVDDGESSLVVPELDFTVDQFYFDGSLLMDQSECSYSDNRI

Assays:
cLUC-VIK (Arabidopsis) = target: T1, cLUC-VIK (Arabidopsis) (UniProt Q9XI87); assay: split reporter; luciferase complementation imaging (LCI): nLUC and cLUC fusions co-transformed by Agrobacterium GV3101 into N. benthamiana leaves; 24 h dark, 48 h light; D-luciferin; VIK-VIK also with co-expressed 35S::ERF13, ERF13 2A or ERF13 2D
T1 sequence: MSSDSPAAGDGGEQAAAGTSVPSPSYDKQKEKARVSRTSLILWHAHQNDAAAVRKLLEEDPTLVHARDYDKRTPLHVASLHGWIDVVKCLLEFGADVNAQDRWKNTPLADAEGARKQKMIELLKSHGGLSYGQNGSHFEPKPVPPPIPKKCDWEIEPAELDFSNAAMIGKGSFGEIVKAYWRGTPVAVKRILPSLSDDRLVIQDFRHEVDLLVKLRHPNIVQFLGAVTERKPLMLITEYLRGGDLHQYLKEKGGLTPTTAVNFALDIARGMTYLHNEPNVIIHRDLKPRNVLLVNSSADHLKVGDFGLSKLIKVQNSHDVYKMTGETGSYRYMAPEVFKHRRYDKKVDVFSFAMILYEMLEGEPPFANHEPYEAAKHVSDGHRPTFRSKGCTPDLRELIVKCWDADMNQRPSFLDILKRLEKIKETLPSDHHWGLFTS

[1] = target: Ethylene Responsive Factor 13 (ERF13) fused to the binding domain (BD-ERF13) (Arabidopsis) (UniProt Q8L9K1); assay: two-hybrid; pGADT7 (AD) and pGBKT7 (BD) fusions in AH109 yeast; growth on SD/-Leu/-Trp/-His or SD/-Leu/-Trp/-His/-Ade; autoactivation inhibited by 3-AT (25 mM for VIK-ERF13)
[2] = target: T2, VH1-… Kinase (VIK) in pGBKT7 (BD-VIK) (Arabidopsis) (UniProt Q9XI87); assay: as above
T2 sequence: T1 sequence

cLUC-ERF13 (Arabidopsis) = cLUC-ERF13 (Arabidopsis) (UniProt Q8L9K1); assay: split reporter; luciferase complementation imaging (LCI): nLUC and cLUC fusions co-transformed by Agrobacterium GV3101 into N. benthamiana leaves; 24 h dark, 48 h light; D-luciferin; VIK-VIK also with co-expressed 35S::ERF13, ERF13 2A or ERF13 2D
cYFP-ERF13 (Arabidopsis) = cYFP-ERF13 (Arabidopsis) (UniProt Q8L9K1); assay: split reporter; BiFC: nYFP and cYFP fusions co-transformed into Arabidopsis mesophyll protoplasts; confocal microscopy
ERF13-Myc (Arabidopsis) = ERF13-Myc (Arabidopsis) (UniProt Q8L9K1); assay: co-IP; ERF13-Myc and YFP-VIK co-expressed in Arabidopsis mesophyll protoplasts; NP-40 lysis buffer; Myc-Trap agarose beads, 4 °C, 2 h; washed with 10 mM Tris-HCl pH 7.5, 150 mM NaCl, 0.5 mM EDTA; blot with anti-GFP and anti-Myc
cYFP-LBD18 (Arabidopsis) = target: T3, cYFP-LBD18 (Arabidopsis) (UniProt O22131); assay: split reporter; BiFC: nYFP and cYFP fusions co-expressed in leaf cells of N. benthamiana; confocal microscopy
T3 sequence: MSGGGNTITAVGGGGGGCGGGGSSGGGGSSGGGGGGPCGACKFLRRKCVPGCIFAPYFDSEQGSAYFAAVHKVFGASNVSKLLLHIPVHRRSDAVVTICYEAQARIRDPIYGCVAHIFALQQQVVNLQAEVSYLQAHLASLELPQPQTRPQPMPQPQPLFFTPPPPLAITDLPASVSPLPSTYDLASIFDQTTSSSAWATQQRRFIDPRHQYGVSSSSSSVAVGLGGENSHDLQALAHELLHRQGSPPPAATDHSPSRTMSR

B1: TMK1-nLUC (receptor, UniProt P43298 24-942)
chain: DSDGDLSAMLSLKKSLNPPSSFGWSDPDPCKWTHIVCTGTKRVTRIQIGHSGLQGTLSPDLRNLSELERLELQWNNISGPVPSLSGLASLQVLMLSNNNFDSIPSDVFQGLTSLQSVEIDNNPFKSWEIPESLRNASALQNFSANSANVSGSLPGFLGPDEFPGLSILHLAFNNLEGELPMSLAGSQVQSLWLNGQKLTGDITVLQNMTGLKEVWLHSNKFSGPLPDFSGLKELESLSLRDNSFTGPVPASLLSLESLKVVNLTNNHLQGPVPVFKSSVSVDLDKDSNSFCLSSPGECDPRVKSLLLIASSFDYPPRLAESWKGNDPCTNWIGIACSNGNITVISLEKMELTGTISPEFGAIKSLQRIILGINNLTGMIPQELTTLPNLKTLDVSSNKLFGKVPGFRSNVVVNTNGNPDIGKDKSSLSSPGSSSPSGGSGSGINGDKDRRGMKSSTFIGIIVGSVLGGLLSIFLIGLLVFCWYKKRQKRFSGSESSNAVVVHPRHSGSDNESVKITVAGSSVSVGGISDTYTLPGTSEVGDNIQMVEAGNMLISIQVLRSVTNNFSSDNILGSGGFGVVYKGELHDGTKIAVKRMENGVIAGKGFAEFKSEIAVLTKVRHRHLVTLLGYCLDGNEKLLVYEYMPQGTLSRHLFEWSEEGLKPLLWKQRLTLALDVARGVEYLHGLAHQSFIHRDLKPSNILLGDDMRAKVADFGLVRLAPEGKGSIETRIAGTFGYLAPEYAVTGRVTTKVDVYSFGVILMELITGRKSLDESQPEESIHLVSWFKRMYINKEASFKKAIDTTIDLDEETLASVHTVAELAGHCCAREPYQRPDMGHAVNILSSLVELWKPSDQNPEDIYGIDLDMSLPQALKKWQAYEGRSDLESSTSSLLPSLDNTQMSIPTRPYGFAESFTSVDGR
Question: Which binding (cLUC-VIK (Arabidopsis)) does the source give for B1 here?
Answer: binds

B2: VH1-… Kinase (VIK) fused to the activation domain (AD-VIK) (enzyme, UniProt Q9XI87 1-438)
chain: T1 sequence
Question: Which binding [1] does the source give for B2 here?
Answer: binds

Question: What about the binding [2] of the same binder?
Answer: binds

B3: VIK-nLUC (enzyme, UniProt Q9XI87 1-438)
chain: T1 sequence
Question: B3 was tested. Which binding (cLUC-ERF13 (Arabidopsis)) did it give?
Answer: binds

Question: And the binding (cLUC-VIK (Arabidopsis))?
Answer: binds

B4: nYFP-VIK (in Arabidopsis protoplasts) (enzyme, UniProt Q9XI87 1-438)
chain: T1 sequence
Question: With B4 as the binder, how does the binding (cYFP-ERF13 (Arabidopsis)) read?
Answer: binds

B5: YFP-VIK (enzyme, UniProt Q9XI87 1-438)
chain: T1 sequence
Question: For B5, which binding (ERF13-Myc (Arabidopsis)) is on record?
Answer: binds

B6: nYFP-VIK (in N. benthamiana leaves) (enzyme, UniProt Q9XI87 1-438)
chain: T1 sequence
Question: B6 was tested. Which binding (cYFP-LBD18 (Arabidopsis)) did it give?
Answer: binds

B7: MPK14 in pGADT7 (AD-MPK14) (enzyme, UniProt O23236 1-361)
chain: MAMLVDPPNGIRQEGKHYYTMWQTLFEIDTKYVPIKPIGRGAYGVVCSSINSETNERVAIKKIHNVFENRIDALRTLRELKLLRHVRHENVISLKDVMLPTHRYSFRDVYLVYELMDSDLNQIIKSSQSLSDDHCKYFLFQLLRGLKYLHSANILHRDLKPGNLLVNANCDLKICDFGLARTYEQFMTEYVVTRWYRAPELLLCCDNYGTSIDVWSVGCIFAEILGRKPIFPGTECLNQLKLIINVVGSQQDWDLQFIDNQKARRFIKSLPFSKGTHFSHIYPHANPLAIDLLQRMLVFDPTKRISVSDALLHPYMEGLLEPECNPSENVPVSSLEIDENMEGDMIREMMWEEMLHYLPRA
Question: B7 was tested. Which binding [2] did it give?
Answer: no binding
